Reference: the supplement of paper PMC11417369
Some of the results follow.

System: PF3D7_0420300 AP2 domain 1 (GST-tagged)
Experiment: gcPBM binding intensity (ln(normalized median fluorescence intensity)); higher = stronger DNA binding
Method in brief: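 Each value is the highest Masliner-normalised natural-log median intensity across replicate spots of either orientation of a probe. The probes were primer-extended double-stranded 36-bp intergenic genomic sequences on an Agilent 4 × 180k array, alongside negative controls, exposed for 1 h to GST-tagged P. falciparum DNA-binding domains expressed in E. coli. Bound protein was picked up with Alexa488 anti-GST antibody and scanned at 488 nm.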

Row | Sequence | gcPBM binding intensity (ln)
1 | TTTCTATATTGGCATACATGCAAGAACGAAAAGATT [TGCATGCA_site117] | 9.02
2 | TAAAAATTGCACAGAAGTACAGTATAAATATATATA [XGTACX_site3421] | 9.19
3 | ATAATATATGAGCAATGTACATATTTCTCATTGCAC [XGTACX_site2253] | 9.22
4 | ATAAAATAAATGAAAAATGTAAAATGAGAAAAAAAT [CACACA_negctrl_site1026] | 9.79
5 | TATATATATATATGGGTGCATTTTTTTGTCCATGTA [GTGCAC_site9868] | 9.25
6 | TATGCTATAATACTCTGTACTTACTAATTTAATAAT [XGTACX_site5926] | 9.31
7 | TACATATTTTTTATATGTACATATTTTTTATGTGTA [XGTACX_site442] | 9.14
8 | TAATAAACAAATTCCAAAATAAATTAAAAGGAAAAT [CACACA_negctrl_site1404] | 9.24
9 | AGGTATATATTACAAGTGCACTGTAAAATTAAAATT | 9.24
10 | TTTTATCTCATTCATCAAAATCACCGGAATCATATA [CACACA_negctrl_site357] | 8.99
11 | ATTTTATCATAATAAAGTACAAAGATGCAAATAATA [XGTACX_site2270] | 9.42
12 | ATTTATTTATATTTAGTGCAATACTATTTTTAAATA [GTGCAC_site9886] | 8.91
13 | GTTTGTATAGGTTCATGTACAAAAAAAAAAAAAAAA [XGTACX_site537] | 8.69
14 | TTTAAAACCCTAAAAAAAAAAAAAAAAAAAAAAAAA [CACACA_negctrl_site1212] | 8.45
15 | ATGCATAAAAGAAATACACACATAAATATGTAAATA [CACACA_site7087] | 9.74
16 | TTAAAACATATTTTGAATTAATATATTTTAATATTA [XGTACX_negctrl_site148] | 8.58
17 | TAGCGTACATTTCATTGTAATCATAAAAAATAAAGA [CACACA_negctrl_site447] | 9.05
18 | ATTCATATGTGACACACACACACACGCATAAAAAAA [CACACA_site7515] | 10.1
19 | ACAAAAATATATATATGTACATATATCATCATAATA [XGTACX_site5850] | 9.37
20 | TTTATTAGAACCGTACGTACATAGTTATTTTTTCAA [XGTACX_site8848] | 9.02
21 | ATAATGTTCCTATGATGTACTTATAATTATCATTTT [XGTACX_site4017] | 9.52
22 | TATTGTTCGTTTAAGGTGCTATTGTTTGCAAAATAT [GTGCAC_site9412] | 9.41

Row | Sequence | gcPBM binding intensity (ln)
23 | ATTAAAATAATATAAACACACATATACTTTTTTCTA [CACACA_site565] | 9.42
24 | AAGAGGTTATTACATTCACATAACATCAATATACGT [GTGCAC_negctrl_site264] | 9.42
25 | TGGGAAAACCCCAGAAGTACGCTTAATATAAAAAAT [XGTACX_site697] | 8.81
26 | GTAATGTCGTCGTTTTGTACATATTTTTATAAAAAG [XGTACX_site2688] | 9.38
27 | TATTATAAATTAATTTTAAACTTTATTATTATGATA [GTGCAC_negctrl_site389] | 8.92
28 | TATTAGTCGAATGATGTACACACATACAAAACATTT [CACACA_site9331] | 9.52
29 | AAAAAAAAAAAGAACTCACACATAATAATGTATATG [CACACA_site4974] | 9.35
30 | AAAGGAGACAGAATAAGAATAAATATTATACATATA [XGTACX_negctrl_site412] | 9.26
31 | TTAAAATTATATCTGTGTACATAAATTGTGTAACTA [XGTACX_site1966] | 9.1
32 | ATTTAAAAAAAAATGGCACACATTTTAATTTTATGT [CACACA_site1740] | 9.07
33 | TTGTGTCATATATTTTGTAATCAAAATAATTTTATT [TGCATGCA_negctrl_site307] | 9.14
34 | TTTTTGTTTCGTTACGCATGCCAAAAGTAAAAATAT [TGCATGCA_site536] | 9.19
35 | TTTTTAATGATCAGACGTACAGTTATGAAGAAATTT [XGTACX_site6394] | 9.06
36 | ATATATTTAAATAAAAGTACGTAAAGGTATATTTAA [XGTACX_site8088] | 9.39
37 | ATAATAAAAAAAAAATGTACATAAATCTAAAATCCT [XGTACX_site5823] | 9.48
38 | CCTCCCATTTTTACACGTACACATTTAAAATAGACT [XGTACX_site5640] | 9.42
39 | TGAAGAAAATATTAATGTACATATTATATATATATA [XGTACX_site5497] | 9.2
40 | TGTAGTCTGGAGAAAAGTACATAGTATCTGATAACC [XGTACX_site2018] | 9.36
41 | GTGCATATATGATATACACACAATATAATAGTATGT [CACACA_site2460] | 9.45
42 | AAGAGTTTGAAGTTTGCACACTACGTTAAAAATAAA [CACACA_site3939] | 9.16
43 | AATATAATGTAATATACACACATATATTTCTCTTTT [CACACA_site5451] | 9.43
44 | CCACATTTTACAGACACACACAATTTATATTACGGT [CACACA_site1894] | 9.7

Row | Sequence | gcPBM binding intensity (ln)
45 | AAAAATTTATTTTTAGGTACACAATTGAATTATTTA [XGTACX_site7008] | 8.94
46 | AATTAAAAATATAAATGTACATATATGTAAAACTTT [XGTACX_site123] | 9.35
47 | CCCATGCATTTTTGCACACACATATATATATAAATA [CACACA_site1430] | 9.63
48 | AATATATGAATTAGAAGTACAAATAAATATTTATTT [XGTACX_site2062] | 9.13
49 | TTAATCATAAAAGTCACACATAATAAGAAAAAGCTT [CACACA_site4616] | 9.37
50 | GTATTTTTTTTAATATGTACATATAAAATATTTTAT [XGTACX_site8329] | 9.28
51 | AATACAATTTATAACACACACACAATAATACATATA [CACACA_site1252] | 10.2
52 | ATATAAGTTTATATATGTACATATATATATTATATA [XGTACX_site2068] | 9.13
53 | AATTCATTTAAAAGTTGTACAAGCTTAATAAAAAAA [XGTACX_site6073] | 9.02
54 | ATATACACATAAAGTAGTACACCTGAAATTTTTTTT [XGTACX_site2951] | 9.33
55 | GAGGATATATTATATGTACACACATATATAACGGAT [CACACA_site8361] | 9.73
56 | CTAGCAAATACATACACACACACACCGATACATATA [CACACA_site9164] | 10.2
57 | ACAAGACAGATATATACACACATACATACATACATA [CACACA_site7472] | 9.65
58 | ATATTTATTTATATTACACACATGTGCAATTAAACT [CACACA_site6928] | 9.58
59 | TTTCTTAAAAAAAAAAAAAAAAGAAGATAAATAAAA [CACACA_negctrl_site289] | 8.9
60 | TTTAACTTATTCAATGCACACATTTTAATAAGATAT [CACACA_site1967] | 9.18
61 | ATATAATAGAAGTGTACACACATATTTATGTCTGTA [CACACA_site3121] | 9.48
62 | ATGGATAACAATATGTGTACACATTTATATCTCCAC [XGTACX_site5457] | 9.42
63 | AAGCATGGATATTTTACACACATTTCCACGTAACAA [CACACA_site3141] | 9.56
64 | ATACATTTTTTTTATACGCACACGTCATACTTTTAA [CACACA_site1638] | 9.48
65 | TCCCTAAAAAATGATAAATGGAGACAATTCCGACAA [GTGCAC_negctrl_site209] | 9.15
66 | TTATATATATTTAAATTTTATCTCACATATATATAT [TGCATGCA_negctrl_site275] | 9.12

Row | Sequence | gcPBM binding intensity (ln)
67 | AATACAATTTCTAGCACACAAAATATTATTATAATT [CACACA_site3223] | 9.39
68 | AAAAAAAAAAAAATCACACACAATATGAATTTATAG [CACACA_site601] | 9.52
69 | TATAGAAGCGTTCACACACACACATACATACCCATA [CACACA_site4915] | 10.3
70 | AAAAAACAATCTCATACACACTAGGGATTAATTATT [CACACA_site5051] | 9.62
71 | TCACATGGAAAAAAGTGTACATAATTATGTATAAAT [XGTACX_site2827] | 9.31
72 | TATAAAAAATAAAAAGTTTAATGAATATTTCTTTTA [TGCATGCA_negctrl_site379] | 8.78
73 | ATATATATAACATATACACACGTTCATATATATATA [CACACA_site4416] | 9.53
74 | TTACAAGTAAAAGGTACACACATTATATATACAAAT [CACACA_site8290] | 9.74
75 | TAATTTTTATTTTATTTTATTTTTTTTTTTTTTATT [CACACA_negctrl_site1671] | 9.19
76 | TATTTGTAAATCGATACACACATATATCTTAATATA [CACACA_site4273] | 9.32
77 | CGGCACGTGATATATACACACATATAGATATATACA [CACACA_site6408] | 9.43
78 | TGGATAATGAATGATGCACACTAAAAATATTCTACA [CACACA_site5912] | 9.34
79 | ATATATACTATATTTTAACACACAAAAAAAAAAAAT [CACACA_site8277] | 9.58
80 | CTTTTTTCAAGACACACACACAAGAAAATATAAATA [CACACA_site7455] | 9.97
81 | CACCCACCCAGACACACACACACAAAAAAAAAAAGA [CACACA_site499] | 10.1
82 | TGTTAATTGAATGCAATCTGAATTTTTTTACATAAT [CACACA_negctrl_site1002] | 9.07
83 | ATCATATGTATGCATACACACAAAAAGTTATTTATA [CACACA_site6325] | 9.37
84 | GAAAATCAGTTAAACACACACATAAAAAAAAAAAAA [CACACA_site2875] | 9.64
85 | CATATAAAAAAATAGACACACATTTTATATAATACG [CACACA_site1896] | 9.58
86 | TCAAGTATTAAAATGGGTACATAAATATGTGTATAT [XGTACX_site5884] | 9.41
87 | CTTTTTAAATTAAAATGTACAGAAAAATATTATTAT [XGTACX_site8760] | 8.92
88 | TATTTTTCTTTTTTTTTTTTTTTTATATTATACGTG [XGTACX_negctrl_site363] | 9.1
